{"source": "the supplement of paper PMC3334620", "note": "Over roughly 33,000 sequences, “E-score (-0.5 to 0.5)” has its median near -0.017; the highest 2% begin near 0.3. The list shows a part of the results."}
{"target": "T1, Sut1 (UniProt P53032)", "T1 sequence": "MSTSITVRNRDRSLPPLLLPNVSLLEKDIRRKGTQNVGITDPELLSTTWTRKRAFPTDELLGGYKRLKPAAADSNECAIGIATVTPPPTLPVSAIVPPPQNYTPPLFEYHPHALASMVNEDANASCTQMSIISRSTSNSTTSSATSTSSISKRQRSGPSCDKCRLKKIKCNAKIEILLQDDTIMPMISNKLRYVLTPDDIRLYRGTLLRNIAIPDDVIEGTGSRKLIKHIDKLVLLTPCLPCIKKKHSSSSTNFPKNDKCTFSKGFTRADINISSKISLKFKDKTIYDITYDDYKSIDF", "assay": "PBM E-score (8-mer binding enrichment) (E-score (-0.5 to 0.5)); higher = stronger / more preferred TF binding; most listed sequences are background and not binding sites", "settings": "protein concentration: 200 nM; construct: GST-full length", "summary_of_the_method": "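Detection of bound protein used fluorescent anti-GST, with scans normalised by masliner. The proteins were GST-tagged yeast transcription factors applied at about 100-200 nM to universal all-10-mer Agilent arrays made double-stranded by primer extension. Each ungapped eight-base word, pooled with its reverse complement, was scored with an E-score from the Universal PBM Analysis Suite.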"}
{"sequence": "ATAAAGTG", "PBM E-score": 0.148}
{"sequence": "CTGAAGCC", "PBM E-score": -0.0969}
{"sequence": "AATGGAAT", "PBM E-score": 0.0767}
{"sequence": "CCTTTACG", "PBM E-score": 0.00031}
{"sequence": "GATGTCTA", "PBM E-score": -0.0645}
{"sequence": "AAGTTATT", "PBM E-score": 0.231}
{"sequence": "CAGTCGAA", "PBM E-score": -0.135}
{"sequence": "GATCTGAA", "PBM E-score": -0.0287}
{"sequence": "GGCCATCA", "PBM E-score": -0.137}
{"sequence": "ACCTTCAT", "PBM E-score": 0.0859}
{"sequence": "ACGCTAAA", "PBM E-score": 0.083}
{"sequence": "ATTTTGTC", "PBM E-score": 0.0653}
{"sequence": "GGCGAGAC", "PBM E-score": -0.294}
{"sequence": "CGATAACC", "PBM E-score": 0.148}
{"sequence": "GCCTCTAA", "PBM E-score": -0.216}
{"sequence": "CCTTTCCA", "PBM E-score": 0.00391}
{"sequence": "ATCCATCA", "PBM E-score": -0.0141}
{"sequence": "GGTCAGAC", "PBM E-score": -0.257}
{"sequence": "AATACTCC", "PBM E-score": 0.199}
{"sequence": "CAGTGCCC", "PBM E-score": -0.256}
{"sequence": "CTTATCCC", "PBM E-score": -0.108}
{"sequence": "GAACTAAC", "PBM E-score": 0.104}
{"sequence": "CGTCGGGC", "PBM E-score": -0.251}
{"sequence": "AACTGGAT", "PBM E-score": 0.118}
{"sequence": "AATCTATC", "PBM E-score": 0.164}
{"sequence": "ACTGAGGC", "PBM E-score": 0.00487}
{"sequence": "CTGCCCGC", "PBM E-score": -0.151}
{"sequence": "GACCTTTA", "PBM E-score": 0.00807}
{"sequence": "GCACGGGA", "PBM E-score": -0.2}
{"sequence": "GAAGCGTA", "PBM E-score": 0.0447}
{"sequence": "CGGTTATA", "PBM E-score": 0.00682}
{"sequence": "AGGAATTG", "PBM E-score": -0.0346}
{"sequence": "GGCCGCGA", "PBM E-score": -0.208}
{"sequence": "CAGCTGAA", "PBM E-score": -0.109}
{"sequence": "CCGAGTAG", "PBM E-score": 0.112}
{"sequence": "ATCCCGGG", "PBM E-score": -0.07}
{"sequence": "ATCTCCGA", "PBM E-score": 0.477}
{"sequence": "CGCACAAC", "PBM E-score": -0.108}
{"sequence": "TCTTCACA", "PBM E-score": 0.0757}
{"sequence": "ACTGAGTC", "PBM E-score": -0.0434}
{"sequence": "GTGATATA", "PBM E-score": 0.0152}
{"sequence": "CACCTAGC", "PBM E-score": -0.157}
{"sequence": "ATGAAGCC", "PBM E-score": 0.0311}
{"sequence": "ACTAACCT", "PBM E-score": 0.128}
{"sequence": "TGTCACAA", "PBM E-score": 0.195}
{"sequence": "CTATACCC", "PBM E-score": -0.14}
{"sequence": "CTTACCAA", "PBM E-score": 0.124}
{"sequence": "GCCTGTCC", "PBM E-score": -0.154}
{"sequence": "CCAACACG", "PBM E-score": 0.0805}
{"sequence": "GTACCGCA", "PBM E-score": 0.102}
{"sequence": "AATGAATA", "PBM E-score": 0.235}
{"sequence": "CGGACGAG", "PBM E-score": 0.0125}
{"sequence": "GATGCTGA", "PBM E-score": -0.212}
{"sequence": "ACGGAAAG", "PBM E-score": 0.25}
{"sequence": "GACGCTAC", "PBM E-score": -0.101}
{"sequence": "ACGACCCC", "PBM E-score": -0.265}
{"sequence": "CTACTAGC", "PBM E-score": 0.117}
{"sequence": "GGCCCCCA", "PBM E-score": -0.361}
{"sequence": "ACTCAAAC", "PBM E-score": 0.0752}
{"sequence": "AACAATTG", "PBM E-score": -0.0164}
{"sequence": "GGGGGGTA", "PBM E-score": -0.215}
{"sequence": "GACTTACC", "PBM E-score": 0.102}
{"sequence": "CTCAGCGC", "PBM E-score": -0.109}
{"sequence": "CAGATGAC", "PBM E-score": -0.251}
{"sequence": "AACGGCAT", "PBM E-score": 0.111}
{"sequence": "ACAACAGT", "PBM E-score": 0.0455}
{"sequence": "ATCCGCGC", "PBM E-score": -0.0272}
{"sequence": "TCCGCAGA", "PBM E-score": 0.133}
{"sequence": "AATCTCGG", "PBM E-score": 0.147}
{"sequence": "GATCAACA", "PBM E-score": -0.02}
{"sequence": "CGTGAGAC", "PBM E-score": -0.0834}
{"sequence": "CACGAGCA", "PBM E-score": -0.0524}
{"sequence": "AAACCTGG", "PBM E-score": -0.112}
{"sequence": "CCCGCGGC", "PBM E-score": -0.0819}
{"sequence": "AAATCACG", "PBM E-score": 0.182}
{"sequence": "CCCTCAGC", "PBM E-score": -0.298}
{"sequence": "AGCCCCGG", "PBM E-score": 0.22}
{"sequence": "GGCCTCAA", "PBM E-score": -0.109}
{"sequence": "GGGCGCGA", "PBM E-score": -0.167}
{"sequence": "CTCCAAGC", "PBM E-score": -0.107}
{"sequence": "AGAGGAAG", "PBM E-score": -0.187}
{"sequence": "CATACATG", "PBM E-score": 0.105}
{"sequence": "ACTCGCAA", "PBM E-score": -0.0227}
{"sequence": "ATGTTACG", "PBM E-score": -0.00828}
{"sequence": "CAGCCTCC", "PBM E-score": -0.243}
{"sequence": "ACGCCCGG", "PBM E-score": -0.00596}
{"sequence": "GGGTTTTA", "PBM E-score": 0.0116}
{"sequence": "CTTTACTC", "PBM E-score": 0.0111}
{"sequence": "CGGGGCTA", "PBM E-score": -0.158}
{"sequence": "AAGTCTTG", "PBM E-score": -0.131}
{"sequence": "ATAAAGTA", "PBM E-score": 0.279}
{"sequence": "AAAAGCTA", "PBM E-score": 0.027}
{"sequence": "CACCCTCA", "PBM E-score": -0.194}
{"sequence": "AGTACCCA", "PBM E-score": -0.129}
{"sequence": "TCCTTAAA", "PBM E-score": 0.0247}
{"sequence": "CTGCTCCC", "PBM E-score": -0.269}
{"sequence": "AAATCGGC", "PBM E-score": 0.0135}
{"sequence": "AGCAACCA", "PBM E-score": 0.26}
{"sequence": "CGGTGACC", "PBM E-score": -0.0984}
{"sequence": "AGTATTAG", "PBM E-score": 0.185}
{"sequence": "AAAAACCT", "PBM E-score": 0.102}
{"sequence": "CTGCCCGA", "PBM E-score": -0.153}
{"sequence": "AAGCGCCC", "PBM E-score": -0.315}
{"sequence": "AAAGGGTA", "PBM E-score": -0.054}
{"sequence": "CAAGGGGA", "PBM E-score": -0.185}
{"sequence": "TCAAATCA", "PBM E-score": 0.0928}
{"sequence": "CGAGTCTA", "PBM E-score": -0.0512}
{"sequence": "AGGGCCTG", "PBM E-score": -0.311}
{"sequence": "ATTGCCTG", "PBM E-score": -0.0331}
{"sequence": "GAACATTA", "PBM E-score": 0.0725}
{"sequence": "AACTGATG", "PBM E-score": 0.0347}
{"sequence": "CACGGATG", "PBM E-score": -0.0768}
{"sequence": "CCATCACA", "PBM E-score": -0.109}
{"sequence": "GTACGAAA", "PBM E-score": 0.0843}
{"sequence": "GAACTATA", "PBM E-score": 0.214}
{"sequence": "ACTCTAGG", "PBM E-score": -0.17}
{"sequence": "CGGACAGC", "PBM E-score": 0.119}
{"sequence": "CCGAGAGA", "PBM E-score": 0.0584}
{"sequence": "AGTTATAT", "PBM E-score": 0.29}
{"sequence": "AACTCATA", "PBM E-score": 0.0842}
{"sequence": "ACGCGCGA", "PBM E-score": -0.12}
{"sequence": "AAAGAGCA", "PBM E-score": 0.127}
{"sequence": "ACAGAGTC", "PBM E-score": -0.193}
{"sequence": "GTTACCAA", "PBM E-score": 0.0418}
{"sequence": "CGGGACAG", "PBM E-score": -0.0243}
{"sequence": "AGCGCCAA", "PBM E-score": -0.159}
{"sequence": "GAGTTTCC", "PBM E-score": 0.12}
{"sequence": "GTTGCTCA", "PBM E-score": -0.0746}
{"sequence": "ACTCACCT", "PBM E-score": -0.157}
{"sequence": "GGTATGCA", "PBM E-score": -0.294}
{"sequence": "CGGTATAC", "PBM E-score": -0.0915}
{"sequence": "AGAGGCCT", "PBM E-score": -0.237}
{"sequence": "ATCGATGG", "PBM E-score": -0.0596}
{"sequence": "AAGGTTGC", "PBM E-score": -0.164}
{"sequence": "CGCTTGGA", "PBM E-score": -0.152}
{"sequence": "CAGTATGC", "PBM E-score": -0.137}
{"sequence": "TATCTCGA", "PBM E-score": 0.108}
{"sequence": "AGTGTAAA", "PBM E-score": 0.0955}
{"sequence": "GCCTCACC", "PBM E-score": -0.0723}
{"sequence": "GGCTCGAC", "PBM E-score": -0.103}
{"sequence": "GTGCCAGA", "PBM E-score": -0.23}
{"sequence": "ACTCCAAC", "PBM E-score": -0.0146}
{"sequence": "GCAGCAAA", "PBM E-score": -0.0223}
{"sequence": "GATCCTCC", "PBM E-score": -0.188}
{"sequence": "ACTCTAAT", "PBM E-score": 0.156}
{"sequence": "GGGATTGA", "PBM E-score": -0.00062}
{"sequence": "CACGTGTC", "PBM E-score": -0.248}
{"sequence": "GGGCCCAA", "PBM E-score": -0.0674}
{"sequence": "CGGGGGGC", "PBM E-score": -0.26}
{"sequence": "AAATCTAA", "PBM E-score": 0.0713}
{"sequence": "AGTTTTGA", "PBM E-score": 0.00406}
{"sequence": "GCCTGAAC", "PBM E-score": -0.274}
{"sequence": "CTTCAGAA", "PBM E-score": 0.0634}
{"sequence": "CCCTACGC", "PBM E-score": -0.315}
{"sequence": "CCCCACCC", "PBM E-score": -0.0481}
{"sequence": "GGGCCACC", "PBM E-score": -0.146}
{"sequence": "CTCGGCGA", "PBM E-score": 0.0809}
{"sequence": "AAAGGAAA", "PBM E-score": 0.183}
{"sequence": "ATGTAACA", "PBM E-score": 0.191}
{"sequence": "GTGTTTCA", "PBM E-score": 0.0164}
{"sequence": "AGGAAGGC", "PBM E-score": -0.13}
{"sequence": "GCTATAAC", "PBM E-score": 0.068}
{"sequence": "ACCTTCGG", "PBM E-score": 0.147}
{"sequence": "CAATGTCC", "PBM E-score": 0.0764}
{"sequence": "ATCAGCCC", "PBM E-score": -0.221}
{"sequence": "CCATATTC", "PBM E-score": -0.0765}
{"sequence": "ATATTTAA", "PBM E-score": 0.303}
{"sequence": "GACATTGC", "PBM E-score": -0.0607}
{"sequence": "CGGTACTC", "PBM E-score": -0.0748}
{"sequence": "ATGGTCCC", "PBM E-score": -0.225}
{"sequence": "AAGAGCGG", "PBM E-score": 0.0491}
{"sequence": "AGAGCAAT", "PBM E-score": 0.0229}
